# This is one part of the list.
# B1: Cohesin-hDCIR (Homo sapiens) (protein)
# chain: LDDLDAVRIKVDTVNAKPGDTVRIPVRFSGIPSKGIANCDFVYSYDPNVLEIIEIEPGDIIVDPNPDKSFDTAVYPDRKIIVFLFAEDSGTGAYAITKDGVFATIVAKVKEGAPNGLSVIKFVEVGGFANNDLVEQKTQFFDGGANVGDTTEPATPTTPVTTPTTTDDLDAASQKYSQLLEKKTTKELVHTTLECVKKNMPVEETAWSCCPKNWKSFSSNCYFISTESASWQDSEKDCARMEAHLLVINTQEEQDFIFQNLQEESAYFVGLSDPEGQRHWQWVDQTPYNESSTFWHPREPSDPNERCVVLNFRKSPKRWGWNDVNCLGPQRSVCEMMKIHLHHHHHH
# Tests used:
# Test in all cases: glycan array binding signal (z-score within array); higher = stronger binding
# Settings in all cases: glycan notation: IUPAC condensed, linker removed
# [1] = target: GlcNAc(b1-2)Gal(b1-3)GalNAc
# Method in brief: (§1)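 Columns mapping to the same glycan were averaged after glycan names were converted to IUPAC-condensed notation. The data come from 3228 arrays in the Consortium for Functional Glycomics database, limited to those with an available protein sequence. Binding is reported as a within-array Z-score averaged across arrays of one protein sequence and across linkers.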
# [2] = target: GlcNAc(b1-2)Man(a1-3)[GlcNAc(b1-2)Man(a1-6)]Man(b1-4)GlcNAc(b1-4)GlcNAc
# Method in brief: as §1
# [3] = target: GlcNAc(b1-2)Man(a1-3)[GlcNAc(b1-2)Man(a1-6)]Man(b1-4)GlcNAc(b1-4)[Fuc(a1-6)]GlcNAc
# Method in brief: as §1
# [4] = target: GlcNAc(b1-2)Man(a1-3)[GlcNAc(b1-4)][GlcNAc(b1-2)Man(a1-6)]Man(b1-4)GlcNAc(b1-4)GlcNAc
# Method in brief: as §1
# [5] = target: GlcNAc(b1-2)Man(a1-3)[GlcNAc(b1-4)][GlcNAc(b1-2)Man(a1-6)]Man(b1-4)GlcNAc(b1-4)[Fuc(a1-6)]GlcNAc
# Method in brief: as §1
# [6] = target: GlcNAc(b1-2)[GlcNAc(b1-4)]Man(a1-3)[GlcNAc(b1-2)Man(a1-6)]Man(b1-4)GlcNAc(b1-4)GlcNAc
# Method in brief: as §1
# [7] = target: GlcNAc(b1-2)[GlcNAc(b1-4)]Man(a1-3)[GlcNAc(b1-4)][GlcNAc(b1-2)Man(a1-6)]Man(b1-4)GlcNAc(b1-4)GlcNAc
# Method in brief: as §1
# [8] = target: GlcNAc(b1-2)[GlcNAc(b1-4)]Man(a1-3)[GlcNAc(b1-4)][GlcNAc(b1-2)[GlcNAc(b1-6)]Man(a1-6)]Man(b1-4)GlcNAc(b1-4)GlcNAc
# Method in brief: as §1
# [9] = target: GlcNAc(b1-2)[GlcNAc(b1-4)]Man(a1-3)[GlcNAc(b1-4)][GlcNAc(b1-2)[GlcNAc(b1-6)]Man(a1-6)]Man(b1-4)GlcNAc(b1-4)[Fuc(a1-6)]GlcNAc
# Method in brief: as §1
# [10] = target: GlcNAc(b1-2)[GlcNAc(b1-6)]Man(a1-6)[GlcNAc(b1-2)Man(a1-3)]Man(b1-4)GlcNAc(b1-4)GlcNAc
# Method in brief: as §1
# [11] = target: GlcNAc(b1-2)[GlcNAc(b1-6)]Man(a1-6)[GlcNAc(b1-2)Man(a1-3)]Man(b1-4)GlcNAc(b1-4)[Fuc(a1-6)]GlcNAc
# Method in brief: as §1
# [12] = target: GlcNAc(b1-2)[GlcNAc(b1-6)]Man(a1-6)[GlcNAc(b1-4)][GlcNAc(b1-2)Man(a1-3)]Man(b1-4)GlcNAc(b1-4)GlcNAc
# Method in brief: as §1
# GlcNAc(b1-3)Fuc = target: GlcNAc(b1-3)Fuc
# Method in brief: as §1
# GlcNAc(b1-3)Gal = target: GlcNAc(b1-3)Gal
# Method in brief: as §1
# [13] = target: GlcNAc(b1-3)Gal(b1-3)GalNAc
# Method in brief: as §1
# GlcNAc(b1-3)Gal(b1-4)Glc = target: GlcNAc(b1-3)Gal(b1-4)Glc
# Method in brief: as §1
# [14] = target: GlcNAc(b1-3)Gal(b1-4)GlcNAc
# Method in brief: as §1
# [15] = target: GlcNAc(b1-3)Gal(b1-4)GlcNAc(b1-2)Man(a1-3)[GlcNAc(b1-3)Gal(b1-4)GlcNAc(b1-2)Man(a1-6)]Man(b1-4)GlcNAc(b1-4)GlcNAc
# Method in brief: as §1
# [16] = target: GlcNAc(b1-3)Gal(b1-4)GlcNAc(b1-2)Man(a1-3)[GlcNAc(b1-3)Gal(b1-4)GlcNAc(b1-2)Man(a1-6)]Man(b1-4)GlcNAc(b1-4)[Fuc(a1-6)]GlcNAc
# Method in brief: as §1
# [17] = target: GlcNAc(b1-3)Gal(b1-4)GlcNAc(b1-2)[GlcNAc(b1-3)Gal(b1-4)GlcNAc(b1-6)]Man(a1-6)[GlcNAc(b1-3)Gal(b1-4)GlcNAc(b1-2)Man(a1-3)]Man(b1-4)GlcNAc(b1-4)GlcNAc
# Method in brief: as §1
# [18] = target: GlcNAc(b1-3)Gal(b1-4)GlcNAc(b1-3)Gal(b1-4)GlcNAc
# Method in brief: as §1
# [19] = target: GlcNAc(b1-3)Gal(b1-4)GlcNAc(b1-3)Gal(b1-4)GlcNAc(b1-2)Man(a1-3)[GlcNAc(b1-3)Gal(b1-4)GlcNAc(b1-3)Gal(b1-4)GlcNAc(b1-2)Man(a1-6)]Man(b1-4)GlcNAc(b1-4)GlcNAc
# Method in brief: as §1
# [20] = target: GlcNAc(b1-3)Gal(b1-4)GlcNAc(b1-3)Gal(b1-4)GlcNAc(b1-2)Man(a1-3)[GlcNAc(b1-3)Gal(b1-4)GlcNAc(b1-3)Gal(b1-4)GlcNAc(b1-2)Man(a1-6)]Man(b1-4)GlcNAc(b1-4)[Fuc(a1-6)]GlcNAc
# Method in brief: as §1
# [21] = target: GlcNAc(b1-3)Gal(b1-4)GlcNAc(b1-3)Gal(b1-4)GlcNAc(b1-2)[GlcNAc(b1-3)Gal(b1-4)GlcNAc(b1-3)Gal(b1-4)GlcNAc(b1-6)]Man(a1-6)[GlcNAc(b1-3)Gal(b1-4)GlcNAc(b1-3)Gal(b1-4)GlcNAc(b1-2)Man(a1-3)]Man(b1-4)GlcNAc(b1-4)[Fuc(a1-6)]GlcNAc
# Method in brief: as §1
# [22] = target: GlcNAc(b1-3)Gal(b1-4)GlcNAc(b1-3)Gal(b1-4)GlcNAc(b1-3)Gal(b1-4)GlcNAc(b1-2)Man(a1-3)[GlcNAc(b1-3)Gal(b1-4)GlcNAc(b1-3)Gal(b1-4)GlcNAc(b1-3)Gal(b1-4)GlcNAc(b1-2)Man(a1-6)]Man(b1-4)GlcNAc(b1-4)GlcNAc
# Method in brief: as §1
# [23] = target: GlcNAc(b1-3)Gal(b1-4)GlcNAc(b1-3)Gal(b1-4)GlcNAc(b1-3)Gal(b1-4)GlcNAc(b1-2)Man(a1-3)[GlcNAc(b1-3)Gal(b1-4)GlcNAc(b1-3)Gal(b1-4)GlcNAc(b1-3)Gal(b1-4)GlcNAc(b1-2)Man(a1-6)]Man(b1-4)GlcNAc(b1-4)[Fuc(a1-6)]GlcNAc
# Method in brief: as §1
# [24] = target: GlcNAc(b1-3)Gal(b1-4)GlcNAc(b1-3)Gal(b1-4)GlcNAc(b1-3)Gal(b1-4)GlcNAc(b1-2)[GlcNAc(b1-3)Gal(b1-4)GlcNAc(b1-3)Gal(b1-4)GlcNAc(b1-3)Gal(b1-4)GlcNAc(b1-6)]Man(a1-6)[GlcNAc(b1-3)Gal(b1-4)GlcNAc(b1-3)Gal(b1-4)GlcNAc(b1-3)Gal(b1-4)GlcNAc(b1-2)Man(a1-3)]Man(b1-4)GlcNAc(b1-4)[Fuc(a1-6)]GlcNAc
# Method in brief: as §1
# [25] = target: GlcNAc(b1-3)Gal(b1-4)GlcNAc(b1-3)Gal(b1-4)GlcNAc(b1-3)Gal(b1-4)GlcNAc(b1-3)Gal(b1-4)GlcNAc(b1-2)Man(a1-3)[GlcNAc(b1-3)Gal(b1-4)GlcNAc(b1-3)Gal(b1-4)GlcNAc(b1-3)Gal(b1-4)GlcNAc(b1-3)Gal(b1-4)GlcNAc(b1-2)Man(a1-6)]Man(b1-4)GlcNAc(b1-4)GlcNAc
# Method in brief: as §1
# [26] = target: GlcNAc(b1-3)Gal(b1-4)GlcNAc(b1-3)Gal(b1-4)GlcNAc(b1-3)Gal(b1-4)GlcNAc(b1-3)Gal(b1-4)GlcNAc(b1-2)Man(a1-3)[GlcNAc(b1-3)Gal(b1-4)GlcNAc(b1-3)Gal(b1-4)GlcNAc(b1-3)Gal(b1-4)GlcNAc(b1-3)Gal(b1-4)GlcNAc(b1-2)Man(a1-6)]Man(b1-4)GlcNAc(b1-4)[Fuc(a1-6)]GlcNAc
# Method in brief: as §1
# [27] = target: GlcNAc(b1-3)Gal(b1-4)GlcNAc(b1-3)Gal(b1-4)GlcNAc(b1-3)Gal(b1-4)GlcNAc(b1-3)Gal(b1-4)GlcNAc(b1-2)[GlcNAc(b1-3)Gal(b1-4)GlcNAc(b1-3)Gal(b1-4)GlcNAc(b1-3)Gal(b1-4)GlcNAc(b1-3)Gal(b1-4)GlcNAc(b1-6)]Man(a1-6)[GlcNAc(b1-3)Gal(b1-4)GlcNAc(b1-3)Gal(b1-4)GlcNAc(b1-3)Gal(b1-4)GlcNAc(b1-3)Gal(b1-4)GlcNAc(b1-2)Man(a1-3)]Man(b1-4)GlcNAc(b1-4)[Fuc(a1-6)]GlcNAc
# Method in brief: as §1
# [28] = target: GlcNAc(b1-3)Gal(b1-4)GlcNAc(b1-3)Gal(b1-4)GlcNAc(b1-3)GalNAc
# Method in brief: as §1
# [29] = target: GlcNAc(b1-3)Gal(b1-4)GlcNAc(b1-3)GalNAc
# Method in brief: as §1
# [30] = target: GlcNAc(b1-3)Gal(b1-4)GlcNAc(b1-3)[GlcNAc(b1-3)Gal(b1-4)GlcNAc(b1-3)]GalNAc
# Method in brief: as §1
# [31] = target: GlcNAc(b1-3)Gal(b1-4)GlcNAc(b1-6)[Gal(b1-3)]GalNAc
# Method in brief: as §1
# [32] = target: GlcNAc(b1-3)Gal(b1-4)GlcNAc(b1-6)[GlcNAc(b1-3)Gal(b1-3)]GalNAc
# Method in brief: as §1
# [33] = target: GlcNAc(b1-3)Gal(b1-4)GlcNAc(b1-6)[GlcNAc(b1-3)]Gal(b1-4)GlcNAc
# Method in brief: as §1
# GlcNAc(b1-3)GalNAc = target: GlcNAc(b1-3)GalNAc
# Method in brief: as §1
binder,measurement,setting,value
B1,glycan array binding signal (z-score),[1],-0.224
same,glycan array binding signal (z-score),[2],-0.471
same,glycan array binding signal (z-score),[3],-0.055
same,glycan array binding signal (z-score),[4],-0.042
same,glycan array binding signal (z-score),[5],-0.61
same,glycan array binding signal (z-score),[6],-0.429
same,glycan array binding signal (z-score),[7],-0.363
same,glycan array binding signal (z-score),[8],-0.531
same,glycan array binding signal (z-score),[9],-0.694
same,glycan array binding signal (z-score),[10],-0.498
same,glycan array binding signal (z-score),[11],-0.393
same,glycan array binding signal (z-score),[12],-0.614
same,glycan array binding signal (z-score),GlcNAc(b1-3)Fuc,-0.363
same,glycan array binding signal (z-score),GlcNAc(b1-3)Gal,-0.686
same,glycan array binding signal (z-score),[13],-0.537
same,glycan array binding signal (z-score),GlcNAc(b1-3)Gal(b1-4)Glc,-0.675
same,glycan array binding signal (z-score),[14],-0.616
same,glycan array binding signal (z-score),[15],-0.164
same,glycan array binding signal (z-score),[16],-0.244
same,glycan array binding signal (z-score),[17],-0.272
same,glycan array binding signal (z-score),[18],-0.186
same,glycan array binding signal (z-score),[19],1.23
same,glycan array binding signal (z-score),[20],-0.019
same,glycan array binding signal (z-score),[21],-0.575
same,glycan array binding signal (z-score),[22],0.39
same,glycan array binding signal (z-score),[23],0.219
same,glycan array binding signal (z-score),[24],-0.539
same,glycan array binding signal (z-score),[25],2.58
same,glycan array binding signal (z-score),[26],0.315
same,glycan array binding signal (z-score),[27],-0.597
same,glycan array binding signal (z-score),[28],0.446
same,glycan array binding signal (z-score),[29],-0.165
same,glycan array binding signal (z-score),[30],-0.523
same,glycan array binding signal (z-score),[31],-0.024
same,glycan array binding signal (z-score),[32],-0.546
same,glycan array binding signal (z-score),[33],-0.659
same,glycan array binding signal (z-score),GlcNAc(b1-3)GalNAc,-0.415
